Where “and” joins values, the source holds several entries; their conditions need not be identical. Identical values can stand only once. Screen size: about 48,000 compounds; about 1,200 (2.5%) were called active. Roughly 2% stayed inconclusive and do not appear here.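 Rule for the calls: active = activation of at least 60% and not above a set upper limit (about 1 call in 100 departs from these limits); inconclusive = activation of 40% to 60%, or above that upper limit; inactive = activation under 40%.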 Some of the results follow.
target: Probable G-protein coupled receptor 32 (Homo sapiens) (UniProt O75388); assay: qHTS for Agonists of Human Resolvin D1 Receptor DRV1; details: CHO-K1 GPR32 beta-arrestin PathHunter luminescence, 90 min; at 76.9 µM; hits give high values; zero percent set by DMSO-only wells; note: 0% is about no effect
Method in brief: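 Using DMSO wells as EC0, agonist-induced signal was taken as chemiluminescence from beta-Gal reconstituted upon beta-arrestin recruitment to GPR32 in CHO-K1 cells after 90 min compound treatment.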

Chain of UniProt O75388 (O75388 whole entry, looked up): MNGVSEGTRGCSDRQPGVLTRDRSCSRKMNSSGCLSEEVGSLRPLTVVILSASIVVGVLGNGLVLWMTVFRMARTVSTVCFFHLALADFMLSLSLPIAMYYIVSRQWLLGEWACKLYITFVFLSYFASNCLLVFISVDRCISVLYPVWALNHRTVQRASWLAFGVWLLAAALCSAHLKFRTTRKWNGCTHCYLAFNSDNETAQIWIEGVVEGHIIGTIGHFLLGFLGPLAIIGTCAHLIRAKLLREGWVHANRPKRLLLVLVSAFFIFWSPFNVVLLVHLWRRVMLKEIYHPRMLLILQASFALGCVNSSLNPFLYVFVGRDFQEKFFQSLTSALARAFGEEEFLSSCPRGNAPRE

Structure (SMILES) | activation
Cc1ccccc1CSc1nnc2[nH]c(=O)cc(-c3ccccc3)n12 | inactive: -0.66%
Cc1ccc(CNC(=O)c2nn(-c3ccc(Cl)cc3)nc2CO)cc1 | inactive: -5.65%
CCc1ccc(-n2c(=O)c3c4c(sc3n(Cc3cc(=O)n5c(C)cccc5n3)c2=O)CCC4)cc1 | inactive: -3.55%
CC(C)OCCCNC(=O)C(=O)Nc1c2c(nn1-c1ccccc1)CS(=O)(=O)C2 | inactive: -15.4%
Cc1ccc2c(c1)N(CC(=O)NCCc1ccccc1)C(=O)CO2 | inactive: 6.95%
CCSc1ncc(Cl)c(C(=O)Nc2nnc(CC)s2)n1 | inactive: 11%
O=C(c1ccccc1F)N1c2ncnn2C2(CCCCC2)[C@@H]2CCCC[C@@H]21 | inactive: -6.1%
Cc1cccc(Nc2nc(N)nc(N)c2S(=O)(=O)c2ccccc2)c1 | inactive: 39%
O=[N+]([O-])c1ccc2c(c1)S(=O)(=O)C=C2 | inactive: -6.24%
Cc1c(C)n(Cc2ccc(F)cc2)c2ccc(C(=O)N3CCN(c4ccc(F)cc4)CC3)cc12 | inactive: -30.1%
CCC(C(=O)NCCc1ccccc1)n1nc(C)c2sc3ccccc3c2c1=O (centres undefined) | inactive: -27.5%
CCOc1ccc2oc(=O)cc(CN3CCN(C(=O)c4ccc(OC)c(OC)c4)CC3)c2c1 | inactive: -22.2%
O=C(C1CCN(c2ncnc3c2nc2n3CCCCC2)CC1)N1CCN(c2ccccc2F)CC1 | inactive: -5.23%
CCCNS(=O)(=O)c1cc(-c2nn3c(C)nnc3c3ccccc23)ccc1C | inactive: -13.5%
Cc1ccc2oc(-c3ccc(Cl)c(NC(=O)Cc4ccccc4)c3)nc2c1 | inactive: 0.134%
COc1ccccc1CCNC(=O)Cc1ccc(NC(=O)N2CCSc3ncccc32)cc1 | inactive: -12.2%
COc1ccc(CNC(=O)c2cc3c(=O)n(Cc4cccnc4)ccc3nc2C)cc1 | inactive: -0.189%
COc1ccccc1CNC(=O)c1cc2c(=O)oc3ccc(C)cc3c2s1 | inactive: -0.224%
CC(=O)N1CCCc2cc(S(=O)(=O)N3CCCC(C(=O)NCc4ccccc4Cl)C3)ccc21 (centres undefined) | inactive: 21.8%
CCc1ccc(-c2nn(CC(=O)NC3CCCCC3)c3c2cnc2ccc(F)cc23)cc1 | inactive: -14.7%
CCOC(=O)c1ccccc1NC(=O)CN(c1cccc(C)c1C)S(=O)(=O)c1ccccc1 | inactive: 5.98%

Structure (SMILES) | activation
Cc1ccc(-n2c(=O)c3c4c(sc3n(Cc3cc(=O)n5cc(Cl)ccc5n3)c2=O)CCC4)cc1C | inactive: -1.27%
CC(C)(C)c1ccc(OCc2nc3ccccc3n2CCOc2ccccc2)cc1 | inactive: -23.8%
Cc1cccc(C)c1OCc1nc2c3cnn(-c4ccccc4F)c3ncn2n1 | inactive: -14.2%
CC1CCc2c(cc(-c3ccccc3)n2-c2ccc(C(=O)NC(C)C)cc2)C1 (centres undefined) | inactive: -34.3%
CCOc1ccccc1NC(=O)C1CCN(S(=O)(=O)c2ccc3[nH]c(=O)oc3c2)CC1 | inactive: 0.0686%
CCc1cccc(OCC(=O)Nc2ccc(S(=O)(=O)Nc3ncccn3)cc2)c1 | inactive: 23.3%
Cc1cc(C)cc(NC(=O)Cc2csc(C)n2)c1 | inactive: -9.55%
CC(=O)c1ccc(S(=O)(=O)N2CCn3cccc3C2c2ccccc2F)cc1 (centres undefined) | inactive: -2.32%
COc1cccc(NC(=O)CSc2nc3c([nH]c4ccccc43)c(=O)n2-c2cc(C)cc(C)c2)c1 | inactive: -26.9%
Cc1ccc(-c2nc(CS(=O)CC(=O)NCc3ccccc3Cl)c(C)o2)cc1 (centres undefined) | inactive: -6.17%
CCOC(=O)Cc1ccc(NC(=O)N2CCSc3ccccc32)cc1 | inactive: -25.7%
COc1ccccc1NC(=O)CSC1=Nc2ccccc2C2=NC(CCC(=O)NCc3ccco3)C(=O)N12 (centres undefined) | inactive: -7.85%
CCCN(CCC)CCCNC(=O)C1CCCN(Cc2nc(-c3ccc(Cl)cc3)oc2C)C1 (centres undefined) | inactive: 0.0787%
COCCNC(=O)C1CCN(C(=O)c2cc3sccc3n2Cc2ccc(Cl)cc2)CC1 | inactive: 4.95%
COc1ccc(C2(Nc3cccc(F)c3)C(=O)c3ccccc3C2=O)cc1 | inactive: -71.2%
CC(C)COC(=O)OCN1C(=O)CN(CCN2CC(=O)N(COC(=O)OCC(C)C)C(=O)C2)CC1=O | inactive: -5.87%
CCOc1ccc2nc(SCC(=O)Nc3ccc(F)cc3)nc(-c3ccccc3)c2c1 | inactive: -9.01%
O=c1ccc2cc(S(=O)(=O)Nc3ccc(F)c(Cl)c3)ccc2[nH]1 | inactive: 12.3%
Cn1nnc2c(NCc3ccc(Cl)cc3)ncnc21 | inactive: 0.632%
COc1cccc(CNC(=O)Cc2c(C)c3c(cc(C)c4c(C)c(C)oc43)oc2=O)c1 | inactive: -7.02%
O=S(=O)(c1ccc(Cl)cc1)c1nc(-c2cccs2)oc1SCc1ccc(F)cc1 | inactive: -26.3%

Structure (SMILES) | activation
O=C(Nc1nc2ccccc2n1CCN1CCOCC1)c1cccc([N+](=O)[O-])c1 | inactive: -5.79%
CC1=C(C(=O)Nc2ccc(Cl)cc2)C(c2ccccc2F)n2nc(SCc3cccc(Cl)c3)nc2N1 (centres undefined) | inactive: -17.3%
COc1ccc(OC)c(NC(=O)C2Cc3ccccc3CN2S(=O)(=O)c2ccc(F)cc2)c1 (centres undefined) | inactive: -8.89%
COc1ccc(NC(=O)Cn2c(=O)n(Cc3ccccc3OC)c(=O)c3cccnc32)cc1Cl | inactive: -29.9%
Cc1ccc(Cn2c(=O)n(CCc3ccc(Cl)cc3)c(=O)c3ccccc32)cc1 | inactive: -9.42%
CCc1ccc(CNC(=O)c2cc3n(n2)CCCN(Cc2ccccc2)C3=O)cc1 | inactive: 9.89%
CCCC(=O)Nc1cc2nn(-c3ccccc3)nc2cc1C | inactive: 45%
CCc1ccccc1NC(=O)Nc1c(C)n(C)n(-c2ccccc2)c1=O | inactive: -12.6%
CCOC(=O)c1c(C)[nH]c(C)c1S(=O)(=O)N1CCC(C(=O)Nc2ccc(OCC)cc2)CC1 | inactive: 5.49%
CCCCn1cc(S(=O)(=O)c2cc(C)ccc2C)c(=O)c2cc(F)c(N3CCC(C)CC3)cc21 | inactive: -13.8%
CC(C)OCCCNc1ncnc2sc3c(c12)CCCC3 | active: 104%
COc1ccc(C(=O)NCC(c2ccco2)S(=O)(=O)c2ccc(F)cc2)cc1 (centres undefined) | inactive: -7.28%
CCc1cccc(NC(=O)CN(c2ccc(C)c(C)c2)S(=O)(=O)c2ccsc2C(=O)OC)c1 | inactive: -25.1%
Cc1ccc(C)c(N2CCN(C(=O)CN3C(=O)COc4ccc(S(=O)(=O)N5CCCC5)cc43)CC2)c1 | inactive: -1.89%
CCCCN(CCCC)CCCNC(=O)Cn1cc2c(n1)-c1c(oc(C(=O)N3CCCC3)c1C)CC2 | inactive: -21.1%
CCCc1nc2nc(C)c(NS(=O)(=O)c3ccc(CC(C)C)cc3)c(=O)n2[nH]1 | inactive: 8.75%
CCOC(=O)c1ccc(N2C(=O)c3[nH]nc(-c4ccc(C)cc4)c3C2c2cccs2)cc1 (centres undefined) | inactive: -8.98%
CCCn1c(CCC(=O)Nc2cc(C(=O)OC)cc(C(=O)OC)c2)nc2cccnc21 | inactive: 4.51%
Cc1ccccc1CCNC(=O)c1ccc2c(c1)nc1n2CCOC1 | inactive: -5.83%
CCOC(=O)c1[nH]cnc1C(=O)Nc1cccc(OC)c1 | inactive: 16.3%
CCCCOc1ccc(Cn2c(=O)sc3ccccc32)cc1OC | inactive: -17.8%

Structure (SMILES) | activation
CCCn1c(CCC(=O)Nc2cc(OC)cc(OC)c2)nc2cccnc21 | inactive: 1.16%
COC(=O)c1scc(-c2ccc(C)cc2)c1S(=O)(=O)Nc1cc(Cl)c(OC)cc1OC | inactive: -2.25%
NC(=O)Cc1cccc(C(=O)c2ccccc2)c1N | inactive: -0.514%
CCC(=O)N1c2ccccc2CC1C(=O)NCCc1cc(OC)c(OC)c(OC)c1 (centres undefined) | inactive: -7.69%
Cc1cc(NC(=O)CCn2c(=O)c3cccn3c3cccnc32)ccc1Br | inactive: -12.6%
COc1ccc(-n2c(=O)c3sc4ccccc4c3n(C)c2=O)cc1 | inactive: -19.5%
Cc1ccc(NC(=O)C2CCCN(S(=O)(=O)c3cccc4nsnc34)C2)cc1C (centres undefined) | inactive: -6.93%
CCCN1CCN(c2nnc(-n3cccc3C(=O)Nc3cc(Cl)ccc3C)s2)CC1 | inactive: -32.1%
CCSc1ncc(Cl)c(C(=O)Nc2nc3ccc(S(C)(=O)=O)cc3s2)n1 | inactive: -8.03%
CC(=O)SCC[N+](C)(C)C | inactive: 9.75%
O=C1NCN(c2ccccc2)C12CCN(CCCC(c1ccc(F)cc1)c1ccc(F)cc1)CC2 | inactive: 5.84% and inactive: -42.7%
O=C(C1CCCN(S(=O)(=O)c2cccc3nsnc23)C1)N1CCN(c2ccccc2)CC1 (centres undefined) | inactive: 29.1%
Cc1ccc(C)c(CN2C(=O)C(O)(c3c(C)[nH]c4ccccc34)c3ccccc32)c1 (centres undefined) | inactive: -11%
COc1ccc(OC)c(CNC(=O)c2ccc3c(c2)c(C)c(C)n3Cc2ccc(Cl)cc2)c1 | inactive: -21.2%
Nc1c(C(=O)Nc2ccccc2Cl)c2ccccn2c1C(=O)c1ccccc1 | inactive: -1.6%
CCOc1ccc(NC(=O)c2c(NCc3cccc(OC)c3OC)sc3c2CCC3)cc1 | inactive: -15.6%
CCc1ccc(NC(=O)CN(c2ccc(Cl)cc2)S(=O)(=O)c2ccsc2C(=O)OC)cc1 | inactive: -7.38%
Cc1cc(N2CCC(C)CC2)nc2ccc(NC(=O)Cc3c(F)cccc3Cl)cc12 | inactive: 17.8%
Cc1ccc(Cn2cc(S(=O)(=O)c3cccc(Cl)c3)c(=O)c3cc(F)c(N4CCCCC4)cc32)cc1 | inactive: -11.1%
CCOC(=O)N1CCN(C(=O)CN(c2ccccc2F)S(=O)(=O)c2ccc(C)cc2)CC1 | inactive: 0.32%
COC(=O)c1c(NC(=O)Cc2coc3cc(C)ccc23)sc2c1CCC2 | inactive: -6.71%
